Laboratory results reported in PubChem BioAssay AID1508623 (National Center for Advancing Translational Sciences (NCATS), 2021).
About 450 (0.94%) of roughly 48,000 compounds were called active. Inconclusive results (about 19%) are left out. Calls follow the shape of the dose curve; as a rule, active = well fitted inhibition curve with a large enough effect; inconclusive = small, poorly fitted or top-dose-only effect; inactive = no such curve, though single readings can be large or run the other way. The list shows a part of the results.

assay: Primary qHTS for Identification of Small Molecule Inhibitors of Huntingtin Promoter Activity; details: HEK293 HTT promoter firefly luciferase reporter (activity 0% = vehicle and -100% = no light), 24 h; series mostly up to 57.5 µM; activity change, negative = inhibition: at the top concentration; also: nearly all actives have a fitted effect of over 50% in size
Procedure, shortened: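 Luminescence was read after Dual-Glo reagent and a 10 min room-temperature incubation. Values were normalized to vehicle (0% activity) and zero RLU (-100% activity). Reporter HEK293 cells had been exposed to compounds (up to 57.5 uM final) for 24 h.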

Activity change, negative = inhibition, inactive:
C[C@@H](c1ncncc1F)[C@](O)(Cn1cncn1)c1ccc(F)cc1F -13.5%
CN(C)c1oc(-c2ccc(COc3ccccc3)o2)nc1C#N -32.9%
COc1ccc(N2CCN(S(=O)(=O)CCNC(=O)c3cc(=O)c4ccccc4o3)CC2)cc1 -21.5%
Cc1cc(C)cc(NC(=O)CSc2nc(=O)[nH]c3c2CCC3)c1 -28.4%
COc1cc(NC(=O)Cn2ccn(-c3cc(C)cc(C)c3)c(=O)c2=O)cc(OC)c1 -2.48%
Cc1ccc(NC(=O)C(=O)NCC(c2ccc3c(c2)OCO3)N2CCN(C)CC2)c(C)c1 (configuration not stated) -19%
Cc1cc(C)cc(NC(=O)CSc2nc3ncccc3[nH]2)c1 -21%
Cc1ccc(NC(=O)C(Cc2ccccc2)NS(=O)(=O)c2ccc3c(c2)CCC(=O)N3)cc1 (configuration not stated) -11.9%
CS(=O)(=O)c1cccc(-c2nnc(NC(=O)c3ccc4c(c3)OCCO4)o2)c1 -5.87%
CCOC(=O)N1CCC(NC(=O)c2cnn(-c3ccc(C)cc3C)c2C2CCN(C(=O)OC(C)(C)C)CC2)CC1 -20.3%
CC(=O)Nc1cccc(Nc2nc3ccccc3n3c(C)nnc23)c1 81.2%
O=C(CN1CCCN(Cc2ccc(F)cc2)S1(=O)=O)Nc1ccc2c(c1)OCCO2 1.72%
CCCN(CCC)CCCNC(=O)Cn1ncc2c3ccccc3n(Cc3ccccc3F)c2c1=O 43.4%
CC(=O)c1nn(-c2ccc(OC(F)(F)F)cc2)nc1Nc1ccccc1 45.4%
CCc1nn(CCCC(=O)NCc2ccc(C)cc2)c(=O)c2cc3occc3n12 -13.6%
CCOc1ccccc1N(C)C(=O)Cn1nc(Cc2ccncc2)c2ccccc2c1=O -12.7%
Cc1c(NC(=O)c2ccc(C(C)(C)C)cc2)cccc1-c1cn(C)c(=O)c(Nc2ccc(C(=O)N3CCOCC3)cc2)n1 -16%
COc1ccccc1C(=O)OCc1cc(=O)n2nc(-c3cccs3)sc2n1 -0.637%
CCOc1ccc(-c2cc(NC(=O)Nc3ccc(Cl)cc3)c(C(=O)OC)s2)cc1 54.4%
CCOC(=O)c1c(NC(=O)CCCOc2ccc(C(C)(C)C)cc2)sc2c1CCCC2 -7.97%
COc1ccc(OC)c(NC(=O)c2cnc(N3CCCCC3)c3ccccc23)c1 -27.4%
Cc1cccc(C(c2sc3nc(-c4ccco4)nn3c2O)N2CCN(c3ccccc3F)CC2)c1 (configuration not stated) 9.27%
CCOC(=O)C1CCCN(S(=O)(=O)c2cc(Br)cc3c2N(C(C)=O)CC3)C1 (configuration not stated) -11.8%
CCc1ccc(NC(=O)[C@H](CSCc2ccccc2)N2Cc3ccccc3C2=O)cc1 -19.6%
O=C1COc2ccc(-c3cc(-c4ccccc4)c4c(n3)-c3ccccc3OC4)cc2N1 -4.98%
Cc1nn(-c2ccccc2)c2sc(C(=O)Nc3ccc(Br)cc3)cc12 -6.52%
CN1CCN(CCCN2c3ccccc3Sc3ccc(S(=O)(=O)N(C)C)cc32)CC1 -13.2%
CN(C)c1ccc(-c2nc(-c3cccs3)c(-c3cccs3)[nH]2)cc1 -46.7%
CCCn1c(SCC(O)c2ccccc2)nc2ccccc21 (configuration not stated) -3.46%
COc1cccc(CNC(=O)CCCn2ncn3c(cc4occc43)c2=O)c1 -19%
Cc1ccc(-c2noc(-c3ccccc3NC(=O)C3CC(=O)N(c4ccc(C)cc4)C3)n2)cc1 (configuration not stated) 33%
COc1cc2nc(Nc3cccc(C)c3)nc(N)c2cc1OC -16.1%
Cc1ccc(C(=O)NCC(c2ccco2)S(=O)(=O)c2cccs2)cc1C (configuration not stated) -18%
CC1=C(C(=O)NCc2ccccc2C)C2(CCCCCC2)OC1=O -1.74%
COC(=O)c1sc(-c2ccccc2)cc1NC(=O)Nc1ccc(Cl)cc1 -1.89%
COc1ccc(NC(=O)CCS(=O)(=O)c2ccc3c(c2)oc(=O)n3C)cc1OC 0.94%
O=C(Oc1ccc(F)cc1)c1nc(SCc2ccc(F)cc2)ncc1Cl 0.698%
Cc1ccc(-c2nc(SCC(=O)NCC3CCCO3)c3c(=O)n(C)c(=O)n(C)c3n2)cc1 (configuration not stated) 2.51%
CCOC(=O)CSC1=Nc2ccccc2C2=NC(CCC(=O)NCc3ccc(OC)cc3)C(=O)N12 (configuration not stated) -6.59%
Cc1ccccc1N1CCN(S(=O)(=O)c2ccccc2)CC1 8.54%
Oc1c(C(c2ccccc2F)N2CCN(c3ccccc3F)CC2)sc2nc(-c3ccco3)nn12 (configuration not stated) 12.3%
COc1ccccc1Cn1ccn(Cc2ccc(C)cc2)c(=O)c1=O -15.1%
CN(C)CC[C@H](c1ccc(Cl)cc1)c1ccccn1 -4.79%
COc1ccc(CNC(=O)CCC2N=C3c4ccccc4N=C(SCc4ccccc4F)N3C2=O)cc1 (configuration not stated) -7.47%
CN(C)CCCNC(=O)c1ccc(-c2cc(O)c3ncccc3c2)cc1 -17.4%
CCOC(=O)C(Cc1ccccc1)NC(=O)CCc1c(C)nc2nc(C)nn2c1C (configuration not stated) 3.64%
O=C(NC1CCCC1)c1ccc2c(=O)n(Cc3ccccc3)c(SCc3cccc([N+](=O)[O-])c3)nc2c1 -1.99%
COCCNC(=O)CSc1nc2cc3c(cc2c(=O)n1CCCC(=O)NCc1ccc2c(c1)OCO2)OCO3 -15.2%
Cc1ccccc1OCc1nc2c3cnn(-c4ccccc4F)c3ncn2n1 -1.8%
CCc1ccc(OCC(=O)Nc2cc(-c3ccc(C)cc3)no2)cc1 65.8%
COc1ccc(CNC(=O)CSc2ncc3c(n2)-c2cc(Cl)ccc2N(Cc2ccccc2)S3(=O)=O)cc1 -8.73%
Cc1ccc(Cl)cc1N1CCN(C(=O)Cn2c(-c3cccs3)cc3cc(F)ccc32)CC1 -23.5%
CCOC(=O)Cn1c(=O)cc(C(F)(F)C(F)(F)F)c2c(C)nn(CC)c21 -17.5%
Cc1c(Cl)cccc1NC(=O)N1CCOc2ccccc21 11.6%
COC(=O)c1sccc1S(=O)(=O)N1CCN(c2ccc(C)cc2C)CC1 -17.7%
Cc1ccc(OCC(=O)Nc2ccc3nc(SCC(=O)Nc4ccc(C)cc4C)sc3c2)cc1 8.94%
COc1cccc(NC(=O)CSc2ncc3c(n2)-c2ccc(Cl)cc2N(C)S3(=O)=O)c1 -22.1%
CCCNC(=O)c1ccccc1NC(=O)c1nsc2ccccc12 22.4%
CCOc1ccccc1NC(=O)C(=O)NCCc1sc2nc(-c3ccc(OC)cc3)nn2c1C -25.6%
Cc1ccc(NC(=O)NCCOCCn2c(=O)oc3ccccc32)cc1C -10.4%
COC(=O)c1ccc(NC(=O)CN2CCN(S(=O)(=O)c3ccc(Br)cc3)CC2)cc1 -26.8%
COc1ccc(S(=O)(=O)N(CC(=O)Nc2cc(C)ccc2OC)Cc2ccccc2)cc1 -39.4%
Cc1ccc(Cn2c(=O)n(-c3ccc(C)cc3)c(=O)c3c2c2cc(C)ccc2n3C)cc1 -1.75%
CCOc1ccc(CCNC(=O)c2cc3c(=O)n(C)c4ccccc4c3n2C)cc1OCC -10.5%
Cc1c(-c2ccc(Cl)cc2)c(=O)oc2c(CN3CCN(CCO)CC3)c(O)ccc12 -21.2%
O=C(CSc1cn(CC(=O)N2CCCCC2)c2ccccc12)NCc1ccc(F)cc1 -14.9%
CCCN(CCC)CCCNC(=O)C1CCN(c2nc3ccc(CC)cc3s2)CC1 45.3%
C[C@@H]1CC(=O)NN=C1c1ccc(NN=C(C#N)C#N)cc1
N#C/C(=C\c1cccc(F)c1)c1nc(-c2cc3c(ccc4ccccc43)oc2=O)cs1 4.79%
CCOc1cc(C2c3c(oc4cc(C)cc(C)c4c3=O)C(=O)N2CCO)ccc1O (configuration not stated) -3.07%
COc1ccc(NC(=O)C2CCN(C(=O)c3sc4nc[nH]c(=O)c4c3C)CC2)cc1Cl 5.43%
COc1ccccc1NC(=O)CSc1nc2c(oc3ccccc32)c(=O)n1-c1ccccc1F -11.2%
Cc1cc2oc(C(=O)N(Cc3ccc(N(C)C)cc3)CC3CCCO3)c(C)c2cc1Cl (configuration not stated) -5.28%
O=C(O)c1ccc(OCCN2CCCCC2)cc1 -0.134%
COc1ccc(NC(=O)c2oc3ccccc3c2NC(=O)c2cc(C)cc(C)c2)c(OC)c1 -8.95%
CCOC(=O)C1CCN(c2nc3ccccc3nc2Cl)CC1 -3.4%
CCc1cccc(NC(=O)c2cc3c(s2)-c2ccccc2OC3)c1 14.3%
O=C(CN1C(=O)c2cccc3cccc1c23)Nc1cccc(F)c1 -16.1%
CN(Cc1ccccc1)c1ccc(-c2nc(-c3ccccc3)no2)cc1[N+](=O)[O-] -0.939%
C=Cc1ccc(Cn2c(C)c(CNCc3ccc(SC)cc3)c(C(=O)O)c2C)cc1 -10%
COC(=O)c1ccc2c(=O)n3nc(Nc4cc(OC)ccc4OC)sc3nc2c1 -8.82%
Cc1ccccc1NC(=O)CSC1=Nc2ccccc2C2=NC(Cc3ccccc3)C(=O)N12 (configuration not stated) -18.5%
Cc1ccc(OCc2nc(C#N)c(NCCc3ccccc3)o2)cc1 -15.2%
CCC(Sc1ncc(S(=O)(=O)c2ccc(Cl)cc2)c(=O)[nH]1)C(=O)Nc1ccc(OC)cc1 (configuration not stated) -11%
Cc1ccc(NC(=O)CCCn2c(=O)c3cccn3c3ccccc32)cc1Cl -11.9%
CCCc1nn2c(=O)cc(COC(=O)C3CCCCC3)nc2s1 -16.3%
COc1ccc(-c2nn(-c3ccc(F)cc3)c3c2cnc2ccc(F)cc23)cc1OC -3.83%
COc1ccc(OCC(=O)Nc2ccc(Cl)c(-c3nc4ncccc4o3)c2)cc1 11.1%
COC(=O)c1ccccc1NC(=O)c1oc2ccc3c(c2c1C)C(=O)CC(C)(C)O3 -8.99%
COCCn1c(SCC(=O)c2c(C)[nH]c3ccccc23)nc2cc(C(=O)NC(C)C)ccc2c1=O -6.48%
CCOc1ccc(CCNC(=O)Cn2ccc3cc(S(=O)(=O)N4CCCCC4)ccc32)cc1 -29.8%
CCN(CCCNC(=O)c1cc(Nc2ccc(OC)cc2)nc2ccccc12)c1cccc(C)c1 -6.07%
COc1cccc(CNC(=O)c2ccc3c(c2)N(Cc2ccc(F)cc2Cl)C(=O)c2ccccc2S3)c1 -19.7%
Cc1ccc(Cl)cc1NC(=O)Nc1cn(CC(C)C)c(=O)c2ccccc12 -7.13%
Cc1ccccc1CN1C(=O)c2ccccc2Sc2ccc(C(=O)NCc3ccccc3)cc21 -30.9%
Cc1cccc(C)c1NC(=O)Cn1c(=O)n(Cc2ccccc2Cl)c(=O)c2cccnc21 -1.46%
Cc1ccc(-c2nc(S(=O)(=O)c3ccc(C)cc3)c(SCC(=O)c3ccccc3)o2)cc1 -21.5%
